# Screen size: about 55,000 compounds; about 530 (0.96%) were called active. Inconclusive means that the source gave no clear call. Such entries were picked first, then a sample of the others. Calls come from the whole dose curve; as a rule, active = well fitted cell-killing curve with a large enough effect; inconclusive = small, poorly fitted or top-dose-only effect; inactive = no such curve, though single readings can be large or run the other way. Potencies of inconclusive entries are doubtful fits and often do not repeat.
# Assay: qHTS Screen for Compounds that Selectively Target Cancer Cells with p53 Mutations: Cytotoxicity of p53 Null Cells at the Nonpermissive Temperature; note: nearly all actives have a fitted effect of over 50% in size;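 for activity, negative = cell killing: 0% = DMSO only and -100% = full killing by 100 µM tamoxifen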
# Conditions: H1299 p53-null (neo) cells, 39C, ATPlite viability, 24 h; activity, negative = cell killing: at 46.1 µM (top of the series)
# In short: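 H1299 lung cancer cells, p53-null (H1299-neo) or expressing p53 A138V (H1299-p53A138V), were plated overnight at 37C, then exposed to compounds at up to 46 uM for 24 hr at 39C. Viability was read by ATP-based luminescence.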
# Potency is the fitted concentration of half-maximal effect; tags give direction and shape of the fitted curve.
SMILES,Potency,"activity, negative = cell killing"
COc1ccccc1OC(C)C(=O)Nc1ccc(-c2nc3ccccc3s2)cc1 (stereo not given),"inconclusive: 0.794 µM [cytotoxic, partial curve]",–
COC(=O)c1cc(S(=O)(=O)N2CCN(c3cccc(C)c3)C(C)C2)cn1C (stereo not given),active: 12.6 µM,–
CCN(CC)CCCNC(=O)c1ccc(-c2nc(CN3CCc4ccccc43)c(C)o2)cc1,–,inactive: -4.42%
CC(C)(C)c1ccc(-c2conc2N)cc1,"inconclusive: 11.2 µM [cytotoxic, partial curve]",–
Cc1cc2ccccc2n1-c1ccc(C(=O)N2CCC(C(=O)NCc3ccc(Cl)cc3)CC2)s1,–,inactive: 23.5%
Cc1ccc(Oc2c(C(F)(F)F)oc3c(CN4CCC(C)CC4)c(O)ccc3c2=O)cc1,"inconclusive: 0.0794 µM [cytotoxic, full curve, poor fit]",–
CCC(C)NC(=O)c1cc(-c2cccc(OC)c2)on1 (stereo not given),"inconclusive: 25.1 µM [cytotoxic, partial curve]",–
COCCCNc1oc(/C=C/c2cc(OC)c(OC)c(OC)c2)nc1C#N,"inconclusive: 0.0316 µM [cytotoxic, full curve]",–
CN1CCc2c(sc3c2C(=O)NC(c2ccc(OC(=O)c4ccc(C(C)(C)C)cc4)cc2)N3)C1 (stereo not given),–,inactive: -12.7%
CCOc1ccc(-c2nc(CSCC(=O)N3CCN(c4ccc(F)cc4)CC3)c(C)o2)cc1,–,inactive: 14.5%
CCC(C(=O)Nc1cc(OC)cc(OC)c1)n1nc(-c2ccc(C)c(C)c2)ccc1=O (stereo not given),"inconclusive: 12.6 µM [cytotoxic, single point]",–
O=C(COC(=O)c1cc2c(s1)CCCC2)NCc1ccccc1Cl,–,inactive: -13.8%
Cc1ccc(S(=O)(=O)Nc2cc3c(cc2NCc2ccccc2)n(C)c(=O)n3C)c(C)c1,"inconclusive: 15.8 µM [cytotoxic, partial curve]",–
COc1ccc(-c2nc3ccccc3o2)cc1NC(=O)c1cccnc1,"inconclusive: 31.6 µM [cytotoxic, single point]",–
Clc1ccccc1Cn1c(-c2cccs2)nc2ccccc21,"inconclusive: 28.2 µM [cytotoxic, single point]",–
CCOC(=O)c1c(C)[nH]c(C)c1S(=O)(=O)N1CCN(c2cc(Cl)ccc2C)CC1,"inconclusive: 25.1 µM [cytotoxic, single point]",–
Cc1ccc(/C=C/C(=O)Nc2ccc3nc(N4CCC(C)CC4)cc(C)c3c2)cc1,–,inactive: -11.4%
COc1cc(-c2cc(OC)c3c(C)oc(C)c3c(=O)c2)ccc1OC(=O)c1cccc(C)c1,"inconclusive: 12.6 µM [cytotoxic, partial curve]",–
CCOC(=O)c1ccc(N2C(=O)c3n[nH]c(-c4ccco4)c3C2c2ccccc2OC)cc1 (stereo not given),"inconclusive: 12.6 µM [cytotoxic, single point]",–
O=C(Nc1cccc(F)c1)c1cnc2sc(N3CCCC3)nn2c1=O,–,inactive: -3.88%
COC(=O)c1c(C)oc2ccc(N(C(=O)c3ccncc3)S(=O)(=O)c3ccc(Br)cc3)cc12,"inconclusive: 31.6 µM [cytotoxic, single point]",–
COc1ccc(-c2noc(N3CCC(C(=O)N4CCN(c5cccc(OC)c5)CC4)CC3)n2)cc1,"inconclusive: 1.58 µM [cytotoxic, full curve, poor fit]",–

SMILES,Potency,"activity, negative = cell killing"
O=C(Cn1cc(C(=O)c2ccco2)c2ccccc21)Nc1ccccc1C(F)(F)F,–,inactive: -24.1%
CCNc1nc2c(c(=O)n(C)c(=O)n2C)n1Cc1ccc(F)cc1,–,inactive: 7.42%
Cc1ccccc1Nc1c(-c2c[nH]c3ccccc23)nc2ccc(Cl)cn12,"inconclusive: 10 µM [cytotoxic, partial curve]",–
CC(=O)Nc1ccc(S(=O)(=O)NCCc2csc3nc(-c4ccc(Cl)cc4)nn23)cc1,–,inactive: -5.12%
CCOC(=O)c1cccc(NC(=O)CCc2c(C)nn(-c3ccc(N4CCCCC4)nn3)c2C)c1,"inconclusive: 11.2 µM [cytotoxic, partial curve]",–
COc1ccccc1NC(=O)c1ncn(-c2ccccc2)n1,"inconclusive: 12.6 µM [cytotoxic, partial curve, poor fit]",–
Cc1ccccc1NC(=O)c1c(NC(=O)c2ccccc2F)sc2c1CCC(C)C2 (stereo not given),–,inactive: 3.45%
Cc1ccc(S(=O)(=O)N(CC(=O)Nc2cccnc2)c2cc(Cl)ccc2C)cc1,"inconclusive: 10 µM [cytotoxic, partial curve]",–
COc1ccc(C(=O)Nc2nc3c(s2)Cc2c(Br)ccc(OC)c2-3)cc1OC,–,inactive: -14.5%
CCN1CCN(C(=O)Cn2ncc3c4ccccc4n(Cc4c(C)cc(C)cc4C)c3c2=O)CC1,"inconclusive: 31.6 µM [cytotoxic, single point]",–
CCCN1C(C(=O)c2ccccc2)=C(OC(=O)COc2ccc(C)cc2)c2ccccc2S1(=O)=O,active: 31.6 µM,–
CC(C)CCNC(=O)c1ccc2nc(Cc3ccccc3)oc2c1,"inconclusive: 0.0316 µM [cytotoxic, full curve, poor fit]",–
CCc1ccc2oc(-c3cc(NC(=O)c4cccs4)ccc3Cl)nc2c1,"inconclusive: 20 µM [cytotoxic, partial curve]",–
CCCCOc1cccc(C2c3c(-c4cc(C)ccc4O)n[nH]c3C(=O)N2CCOC)c1 (stereo not given),"inconclusive: 25.1 µM [cytotoxic, single point]",–
COc1ccc(-c2cn3nc(SCC(=O)Nc4cccc(C)c4C)ccc3n2)cc1,"inconclusive: 10 µM [cytotoxic, partial curve, poor fit]",–
COc1ccc(C2C(C(=O)Nc3ccccc3)=C(C)Nc3nc(-c4ccc(Cl)cc4)nn32)cc1 (stereo not given),"inconclusive: 15.8 µM [cytotoxic, single point]",–
CC(Nc1oc(-c2ccc(COc3ccccc3)o2)nc1C#N)c1ccccc1 (stereo not given),"inconclusive: 15.8 µM [cytotoxic, single point]",–
CCOC(=O)c1cnc2c(ccc3ccccc32)c1Nc1ccccc1O,"inconclusive: 35.5 µM [cytotoxic, single point]",–
COc1ccc(C2CC(=O)Nc3c2c(C)nn3-c2nncc(-c3ccccc3)n2)c(OC)c1OC (stereo not given),"inconclusive: 4.47 µM [cytotoxic, single point]",–
Cc1ccc(C(=O)NCCc2csc(-c3cccc(F)c3)n2)cc1C,–,inactive: -11.1%
COc1ccc2c(CNC3CCC(C)CC3)c(C(=O)O)n(Cc3ccc(F)cc3)c2c1 (stereo not given),"inconclusive: 1.26 µM [cytotoxic, partial curve]",–
COc1ccc(OCc2nc3ccccc3n2Cc2ccc(C(C)(C)C)cc2)cc1,"inconclusive: 25.1 µM [cytotoxic, single point]",–

SMILES,Potency,"activity, negative = cell killing"
COc1ccccc1NC(=O)c1cc2c(-c3ccccc3)nn(-c3ccccc3)c2s1,"inconclusive: 31.6 µM [cytotoxic, single point]",–
Cc1ccc(C)c(N2CCN(CCCNC(=O)c3cnn(-c4cccc(Cl)c4)c3C3CCN(C(=O)OC(C)(C)C)CC3)CC2)c1,"inconclusive: 31.6 µM [cytotoxic, single point]",–
Cc1ccc(-c2nnc(Nc3ccc(OCC(N)=O)cc3)c3ccccc23)cc1S(=O)(=O)NCC1CCCO1 (stereo not given),active: 12.6 µM,–
O=C(CCn1cnc2onc(-c3ccc(F)cc3)c2c1=O)Nc1cccc(C(F)(F)F)c1,"inconclusive: 12.6 µM [cytotoxic, partial curve]",–
COc1ccccc1Nc1nn2c(=O)c3ccc(C(=O)NCCc4ccccc4)cc3nc2s1,active: 6.31 µM,–
CC(=O)Nc1cccc(-c2nnc(SCC(=O)c3cc([N+](=O)[O-])ccc3Cl)o2)c1,"inconclusive: 25.1 µM [cytotoxic, single point]",–
COc1ccc(S(=O)(=O)Nc2cccc(-c3ccc(N4CCCC4)nn3)c2)cc1F,"inconclusive: 12.6 µM [cytotoxic, partial curve, poor fit]",–
Cc1cccc(-c2noc(CN(C(=O)c3ccc(C)c(C)c3)C(C)C)n2)c1,"inconclusive: 17.8 µM [cytotoxic, single point]",–
Cc1csc2nc(-c3cccc(NC(=O)c4cccc(F)c4)c3)cn12,"inconclusive: 12.6 µM [cytotoxic, partial curve]",–
Cc1ccc(NC(=O)c2ccc3nc(Cc4ccccc4)oc3c2)cc1F,"inconclusive: 0.158 µM [cytotoxic, full curve]",–
CC1CCCCN1C(=O)CSc1nnc(-c2cccc(Cl)c2)o1 (stereo not given),"inconclusive: 15.8 µM [cytotoxic, single point]",–
O=C(c1ccccc1)N1CCc2cc(CNS(=O)(=O)c3ccccc3Cl)ccc21,"inconclusive: 0.005 µM [cytotoxic, full curve]",–
O=C1CC(c2ccccc2)Cc2[nH]c(=O)c(-c3nc(-c4cccc(Cl)c4)cs3)cc21 (stereo not given),–,inactive: -15.6%
O=C(Nc1noc2ccccc12)c1cccc(F)c1,"inconclusive: 7.94 µM [cytotoxic, partial curve]",–
CC(C)c1ccc(NC(=O)C2CCCN(S(=O)(=O)c3cccc4nonc34)C2)cc1 (stereo not given),"inconclusive: 0.251 µM [cytotoxic, full curve, poor fit]",–
CC(C)c1ccc(C(=O)Nc2cccc3cccnc23)cc1,"inconclusive: 31.6 µM [cytotoxic, single point]",–
CNC(=O)c1cc2n(n1)CCCN(Cc1ccc(F)cc1)C2=O,–,inactive: 1.22%
CCn1cc(C(=O)NC(=S)Nc2sc3c(c2C(=O)OC)CCCCCC3)cn1,"inconclusive: 1.58 µM [cytotoxic, partial curve, poor fit]",–
CCOc1ccccc1N1CC(c2nc3ccccc3n2CCCOc2ccccc2OC)CC1=O (stereo not given),–,inactive: -11.1%
O=C(Nc1nc2nc(-c3ccccc3)cc(=O)n2[nH]1)c1ccc(F)cc1,–,inactive: -12.6%
Brc1csc(/C=N/Nc2nc3ccccc3s2)c1,"inconclusive: 8.91 µM [cytotoxic, partial curve, poor fit]",–

# From PubChem BioAssay AID904 (National Center for Advancing Translational Sciences (NCATS), 2007)
